# Experimental data reported in article PMC6919601, “Identification of Plasmodium dipeptidyl aminopeptidase allosteric inhibitors by high throughput screening” (PLoS ONE, 2019).
# The whole screen tested about 110,000 compounds, of which about 230 (0.21%) showed an effect of 50% or more. The list shows a part of the results.
# Target: DPAP1 (Plasmodium falciparum, UniProt Q8IIJ9)
# Assay: primary screen, percent inhibition; read by cleavage of a fluorogenic dipeptide substrate; higher = more effect of the substance
# Parameters: species or system P. falciparum D10 trophozoite lysates; single well
# 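Also: 30 min substrate incubation versus DMSO and 10 µM JCP410 controls.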
# DPAP1, sequence (Q8IIJ9 whole entry, looked up): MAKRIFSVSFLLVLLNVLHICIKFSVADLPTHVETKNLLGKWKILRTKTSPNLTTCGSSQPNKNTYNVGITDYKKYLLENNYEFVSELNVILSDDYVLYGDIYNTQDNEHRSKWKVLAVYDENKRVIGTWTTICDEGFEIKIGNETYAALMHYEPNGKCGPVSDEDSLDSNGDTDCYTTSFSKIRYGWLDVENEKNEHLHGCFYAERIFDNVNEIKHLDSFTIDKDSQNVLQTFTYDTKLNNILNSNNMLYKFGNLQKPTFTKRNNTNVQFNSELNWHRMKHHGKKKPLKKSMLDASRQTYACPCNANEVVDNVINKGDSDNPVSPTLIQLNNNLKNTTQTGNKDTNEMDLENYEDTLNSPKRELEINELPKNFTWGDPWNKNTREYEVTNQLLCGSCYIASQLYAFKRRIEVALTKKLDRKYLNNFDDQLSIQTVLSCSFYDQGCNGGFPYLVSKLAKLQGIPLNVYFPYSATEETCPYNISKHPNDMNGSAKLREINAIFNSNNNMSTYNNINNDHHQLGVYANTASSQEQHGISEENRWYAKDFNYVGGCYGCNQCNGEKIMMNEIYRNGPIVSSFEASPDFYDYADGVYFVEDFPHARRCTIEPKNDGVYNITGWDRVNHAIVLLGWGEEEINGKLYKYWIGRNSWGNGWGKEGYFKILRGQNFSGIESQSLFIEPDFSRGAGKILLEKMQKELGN
row,Compound,% Inhibition @ 10 uM [%]
1,COc1ccc(/C=C2N=C(/C=C/c3ccccc3)OC\2=O)c(OC)c1OC,0.775
2,O=C(c1ccc(CS(=O)c2cccc(Cl)c2)o1)N1CCCCCC1 (stereo not shown),5.15
3,COc1ccc(-c2nnnn2CCOCCn2nnnc2-c2ccc(OC)cc2)cc1,-0.834
4,COc1cc(CN2CCN(Cc3ccc(Br)cc3)CC2)cc2c1OCO2,-3.68
5,CC1=C(C(=O)Nc2cc(C)ccn2)C(c2cccc(Br)c2)C2=C(O)CC(C)(C)CC2=N1 (stereo not shown),-2.07
6,CCOC(=O)c1cc2ccccc2n1CC(=O)c1ccccc1,1.63
7,COc1cc(C2C(C(=O)/C=C/c3ccccc3)=C(O)C(=O)N2CCCCCC(=O)O)ccc1O (stereo not shown),-7.58
8,N#Cc1c2n(c3c(=O)n(CC(=O)c4ccccc4)cnc13)CCCC2,1.82
9,c1ccc(Oc2cc(-n3cncn3)nc(-c3ccccc3)n2)cc1,4.03
10,N#CC1=C(SCC(=O)Nc2ccccc2)NC(=O)C(C#N)C12CCCC2 (stereo not shown),-4.26
11,Cc1nc(O)nc(O)c1NS(=O)(=O)c1ccc2c(c1)n(C)c(=O)n2C,0.161
12,C=CCn1c(=N)c(S(=O)(=O)c2ccccc2)cc2c(=O)n3cccc(C)c3nc21,3.62
13,O=C(O)CCCC(=O)NCCc1ccncc1,-2.9
14,O=C(O)/C=C/c1cn(-c2ccccc2)nc1-c1ccccc1,-0.178
15,COc1ccccc1C(=O)NC1(C(F)(F)F)C(=O)Nc2c1c(=O)n(C)c(=O)n2C (stereo not shown),-5.27
16,CCOC(=O)NC1c2ccccc2CSc2ccccc21 (stereo not shown),0.583
17,Cc1c2cnn(CC(=O)NCCCSC3CCCCC3)c(=O)c2c(C)n1Cc1ccccc1,1.22
18,NCCN1C(=O)S/C(=C/c2ccc(F)c(Oc3ccccc3)c2)C1=O,1.03
19,NC(=O)c1c(NC(=O)CN2CCCCC2)sc2c1CCCC2,-2.62
20,CC(O)c1cccc(NC(=O)c2cnn3c2NC(c2ccccc2)CC3C(F)(F)F)c1 (stereo not shown),-2.87
21,CCO/C(O)=C1/C(C)=Nc2nc3ccccc3n2C1/C=C/c1ccccc1 (stereo not shown),-5.2
22,COC(=O)c1cc(-c2cccnc2)nc2ccccc12,4.42

row,Compound,% Inhibition @ 10 uM [%]
1,COc1ccc(OC)c(/C=C(/C#N)C(=O)Nc2ccc(Cl)cc2)c1,-0.0494
2,COc1ccc(CNC(=O)CCCNS(=O)(=O)c2cccc3nonc23)cc1,0.457
3,CNC(=O)C1CC(=O)N(CCc2ccccc2)/C(=N/c2ccc(OC)cc2)S1 (stereo not shown),-7.63
4,CCOc1ccc(CCNC(=O)CS(=O)Cc2nc(-c3ccccc3F)oc2C)cc1OCC (stereo not shown),-1.05
5,N#CCNC(=O)[C@H](CC1CCCCC1)NC(=O)c1cnc2ccccc2c1,2.86
6,CCCCOCC(O)Cn1cnc2ccccc21 (stereo not shown),-5
7,Cc1cc(C)n(-c2cc(-c3ccccc3)nc(C)n2)n1,6.09
8,CCOC(=O)N1CCC(Nc2nc3ccccc3n3c(CC)nnc23)CC1,-8.08
9,COc1cc(CN2CCN(Cc3ccccc3)CC2)cc2c1OCO2,-3.41
10,O=C(CN(C1CCCCC1)S(=O)(=O)c1ccccc1)N1CCCCCC1,1.39
11,CC(=O)Nn1cc2c(=O)n(C)c(=O)n(C)c2c1,-3.75
12,CCc1nnc(/N=C/c2c(C)nn(-c3ccc(F)cc3)c2O)s1,-2.39
13,Cc1ccc(CNS(=O)(=O)Cc2ccccc2)cc1,-1.5
14,CCN(CC)S(=O)(=O)c1ccc2c(c1)Cc1cc(S(=O)(=O)N(CC)CC)ccc1-2,3.09
15,O=S1(=O)N=C(Nc2ccc(Cl)cc2)c2ccccc21,1.67
16,C=CCN1CCN(c2ccncc2S(=O)(=O)NC(C)C)CC1,-10.2
17,O=C(COc1ccc(Cl)cc1Cl)Nc1cccc2c(NC(=O)COc3ccc(Cl)cc3Cl)cccc12,-4.96
18,CC1=CC(C)C2(CO)COC(c3ccc(O)cc3)C1C2C (stereo not shown),-1.85
19,CCCCN(C)C(=O)C1CCCN(c2nnc(C)c3c(C)n(-c4ccc(Cl)cc4)nc23)C1 (stereo not shown),7.09
20,COc1ccc(-n2c(/C=C/c3ccc(O)cc3)nc3ccccc3c2=O)cc1,8.36
21,Cc1ccc(S(=O)(=O)NCc2ccc(C(=O)NCCCOC(C)C)cc2)cc1,-1.54
22,Cc1ccc(CCN2CC(C(=O)NCCN3CCCCCC3)CC2=O)cc1 (stereo not shown),4.81

row,Compound,% Inhibition @ 10 uM [%]
1,COc1cccc(CN(C)CCN(C)C)c1OC,5.03
2,COc1ccc(C(=O)N(C(C)C)C(C)C)c(OC)c1,-0.318
3,CCOc1ccccc1NC(=O)Cc1ccc(OC)cc1,3.13
4,Cc1[nH]nc2c1C(c1ccccn1)N(C)C2=O (stereo not shown),3.88
5,CCCC12CN3CN(C1)CC(CCC)(C3)C2=O,-2.86
6,COc1cc(C2NC(=O)NC(C)=C2C(=O)OCC(C)C)ccc1OCc1ccccc1 (stereo not shown),6.94
7,O=[N+]([O-])c1ccc(S(=O)(=O)NCCc2ccccc2)cc1,17.9
8,COc1cccc(C(=O)Nc2ccc(F)c(F)c2)c1,-5.82
9,Cc1nc2ccccc2c2c1C(=O)N(Cc1ccccc1Cl)C2=O,-6.5
10,CCc1sc(NC2=NS(=O)(=O)c3ccccc32)nc1-c1ccccc1,2.31
11,COc1ccc(CN2CNc3c(c(C)nn3-c3ccccc3)C2)cc1,-1.08
12,O=C(CCNS(=O)(=O)c1ccc2[nH]c(-c3ccccc3)nc2c1)NCc1ccc(F)cc1,-0.232
13,CC1(C(=O)O)COC(c2ccccc2)OC1 (stereo not shown),-3.04
14,CCOC(=O)C1CCCN(C/C=C/c2ccc(N(C)C)cc2)C1 (stereo not shown),-1.21
15,CC1(C)Cc2nc3sc4c(N5CCNCC5)ncnc4c3cc2CS1,3.29
16,Cc1ccc(NC(=O)c2ccc(Cl)c([N+](=O)[O-])c2)cc1C,5.43
17,Cc1ccc(C(=O)O)cc1S(=O)(=O)N1CCC(C)CC1,-3.27
18,O=C(CN1CCN(Cc2ccccc2)C1=O)NCCN1CCOCC1,-0.984
19,COc1ccc(C(CC(=O)O)NC(=O)CSc2nnc(N)s2)cc1 (stereo not shown),-0.834
20,Cc1ccc(C(=O)NCCNS(=O)(=O)c2ccccc2)cc1,0.408
